Test results reported in PubChem BioAssay AID1030 (National Center for Advancing Translational Sciences (NCATS), 2008).
Screen size: about 220,000 compounds; about 16,000 (7.3%) were called active. Inconclusive means that the source gave no clear call. Such entries were picked first, then a sample of the others. Calls follow the shape of the dose curve; as a rule, active = well fitted inhibition curve with a large enough effect (not every such curve was filed as active); inconclusive = small, poorly fitted or top-dose-only effect, or another doubt; inactive = no such curve, though single readings can be large or run the other way. No potency is given beside an inconclusive call; the fits are too rough.
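For activity, negative = inhibition in this document: plate controls were no enzyme wells and a reference inhibitor.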
Potency is read from the fitted curve at half-maximal effect; tags tell the direction and shape of the fitted curve.

These molecules were tested against Aldehyde dehydrogenase 1A1 (Homo sapiens) (UniProt P00352) (assay: qHTS Assay for Inhibitors of Aldehyde Dehydrogenase 1 (ALDH1A1)). Settings: Purified ALDH1A1, NADH fluorescence, propionaldehyde substrate; series mostly up to 75.3 µM; activity, negative = inhibition: at the top concentration.
Chain of UniProt P00352 (P00352 whole entry, looked up): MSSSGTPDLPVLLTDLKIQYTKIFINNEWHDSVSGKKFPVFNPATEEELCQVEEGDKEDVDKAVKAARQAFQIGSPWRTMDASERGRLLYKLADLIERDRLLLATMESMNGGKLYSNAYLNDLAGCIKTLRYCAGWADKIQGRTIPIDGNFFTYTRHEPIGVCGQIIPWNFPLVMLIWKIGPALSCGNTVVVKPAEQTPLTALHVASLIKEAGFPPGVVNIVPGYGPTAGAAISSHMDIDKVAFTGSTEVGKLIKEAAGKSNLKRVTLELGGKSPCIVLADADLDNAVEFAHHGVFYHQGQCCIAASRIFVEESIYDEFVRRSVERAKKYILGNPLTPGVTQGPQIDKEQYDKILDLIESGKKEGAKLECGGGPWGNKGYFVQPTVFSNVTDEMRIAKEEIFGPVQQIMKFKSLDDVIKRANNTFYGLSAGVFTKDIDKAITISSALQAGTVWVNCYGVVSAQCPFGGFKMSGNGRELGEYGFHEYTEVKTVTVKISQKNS
With `COC(=O)c1nnn(CC(=O)NC(=O)Nc2ccccc2F)c1C(=O)OC` the “activity, negative = inhibition” value was inactive: 12%. `CC12CCC(c3c(C(=O)Nc4nccs4)nn(-c4ccccc4)c31)C2(C)C` (configuration not stated) was tested, and the Potency was active: 3.98 µM. In the case of `Cc1cc(C)c2c(=O)[nH]c(SCC(=O)NCc3ccccc3)nc2n1`, the Potency is reported as inconclusive [inhibitor, partial curve]. For `Cc1ccc2[nH]c3c(NCCCN4CCCC4=O)ncnc3c2c1`, the Potency was inconclusive [inhibitor, partial curve]. With `COc1ccc(NC(=S)Nc2ccc(OC)cc2OC)c(OC)c1` the Potency was active: 20 µM. With `O=C(CCCOc1ccccc1)N1CCCc2ccccc21` the “activity, negative = inhibition” value was inactive: -7.21%. In the case of `COCc1c(Br)c(C)nc(OCC(=O)N/N=C/c2cc(C)n(-c3ccc([N+](=O)[O-])cc3)c2C)c1C#N`, the “activity, negative = inhibition” value is reported as inactive: -8.59%. `Cc1cc(C)cc(NC(=S)/C(=C(\[O-])c2ccc(Cl)s2)[n+]2cccc(C)c2)c1` was tested, and the Potency was active: 25.1 µM. For `COC(=O)c1[nH]c2ccc(C)cc2c1NC(=O)CN1CCC(C)CC1`, the Potency was inconclusive [inhibitor, partial curve]. With `COC(=O)CC1=C(C(=O)OC)C(c2ccncc2)C(C#N)=C(N)O1` (configuration not stated) the Potency was inconclusive [inhibitor, partial curve]. `N#Cc1ccc(NC(=O)Nc2ccc(Oc3ccc(NC(=O)Nc4ccc(C#N)cc4)cc3)cc2)cc1` was tested, and the “activity, negative = inhibition” value was inactive: -11%. `COc1ccc(-c2cc(=O)c3c(OC)c(OC)c(OC)c(OC)c3o2)cc1OC` was tested, and the Potency was inconclusive [inhibitor, partial curve]. In the case of `Cc1cc(C)n2ncc(C(=O)Nc3ccc(Cl)c(Cl)c3)c2n1`, the Potency is reported as inconclusive [inhibitor, partial curve]. With `N#C/C(=C/c1cn(CC(=O)O)c2ccccc12)C(=O)NCc1ccccc1` the “activity, negative = inhibition” value was inactive: -15.7%. `Cc1cc(C)cc(OCC(=O)N/N=C/c2ccc([N+](=O)[O-])o2)c1` was tested, and the “activity, negative = inhibition” value was inactive: 0.0169%. In the case of `COc1ccc(C(=O)N(NC(=O)Oc2ccccc2)C(C)(C)C)cc1`, the “activity, negative = inhibition” value is reported as inactive: -1.92%. `CC(=O)Nc1ccc2sccc2c1` was tested, and the “activity, negative = inhibition” value was inactive: 7.81%. For `Cn1ncc([N+](=O)[O-])c1C(=O)Nc1ccc(-c2nc3ccccc3o2)cc1`, the “activity, negative = inhibition” value was inactive: -1.09%. `O=C(COc1ccc2ccccc2c1)NCC(=O)N/N=C/c1ccco1` was tested, and the “activity, negative = inhibition” value was inactive: -1.78%. For `COc1cc2c(C(=O)N3CCOCC3)c(CSc3ccccc3)n(C)c2cc1Br`, the Potency was inconclusive [inhibitor, single point]. For `CSc1nc(N(C)C)nc(N(C#N)CCOC(C)=O)n1`, the Potency was inconclusive [inhibitor, partial curve]. `O=C(NC1CCCc2ccccc21)C1CCN(S(=O)(=O)N2CCCCCC2)CC1` (configuration not stated) was tested, and the Potency was active: 4.47 µM. `Cc1cc2nc(C)n(CCCNC(=O)Nc3ccc(C#N)cc3)c2cc1C` was tested, and the “activity, negative = inhibition” value was inactive: -2.67%. `O=S(=O)(NC1CCCCC1Nc1ccccc1)c1ccccc1` (configuration not stated) was tested, and the Potency was inconclusive [inhibitor, single point]. For `Oc1ccccc1/C=N/NC(=S)NC1CC2CCC1C2` (configuration not stated), the Potency was inconclusive [inhibitor, single point]. With `O=C(C[n+]1ccc(C(=O)N/N=C/c2ccc(Cl)cc2Cl)cc1)c1ccccc1` the Potency was inconclusive [inhibitor, full curve]. `O=C(CCCN1C(=O)/C(=C/c2ccco2)SC1=S)Nc1ccccc1` was tested, and the Potency was inconclusive [inhibitor, single point]. For `Cc1ccc(-c2csc(CC(N)=O)n2)cc1`, the Potency was inconclusive [inhibitor, single point]. For `Cc1cccc(CNc2cc(-c3ccccc3C)ncn2)c1`, the Potency was inconclusive [inhibitor, single point]. For `CCOc1ccc(C(=O)Nc2ccc(NC(=O)c3ccco3)c(Cl)c2)cc1Cl`, the Potency was inconclusive [inhibitor, single point]. In the case of `Cc1ccc(Nc2cc(-n3cccn3)ncn2)c(C)c1`, the Potency is reported as inconclusive [inhibitor, single point]. With `CCn1c(CNc2cccc(Cl)c2)nnc1SCC(=O)OC1CCCCC1` the Potency was inconclusive [inhibitor, partial curve]. In the case of `CC[C@@H]1C(c2cccc(C)c2)=NN(c2ccccc2)[C@H]1C(=O)N1CCOC1=O`, the Potency is reported as inconclusive [inhibitor, partial curve]. For `O=C(c1csnn1)N1CCC2(CC1)CCN(c1ncccn1)CC2`, the “activity, negative = inhibition” value was inactive: 3.73%. In the case of `O=C(N/N=C\c1ccc2c(c1)OCO2)c1ccco1`, the “activity, negative = inhibition” value is reported as inactive: -3.54%. `Cc1oc(-c2cccc(C(F)(F)F)c2)nc1CN1CCC[C@H]1CO` was tested, and the Potency was inconclusive [inhibitor, single point]. `O=C(CC1Nc2ccccc2NC1=O)Nc1cc(Cl)cc(Cl)c1` (configuration not stated) was tested, and the Potency was inconclusive [inhibitor, single point]. For `COc1ccc(C(CC(=O)c2ccccc2)S(=O)(=O)c2ccc(C)cc2)cc1` (configuration not stated), the Potency was inconclusive [inhibitor, partial curve]. With `COC(=O)COC(=O)CC(CC(N)=O)c1ccccc1` (configuration not stated) the “activity, negative = inhibition” value was inactive: 19.3%. In the case of `CCCc1nn2c(N)c(/C=C3\C=Nc4ccccc43)c(=O)nc2s1`, the “activity, negative = inhibition” value is reported as inactive: -0.981%. For `O=C(NCc1ccco1)c1ccc(Oc2ccccc2)cc1`, the Potency was inconclusive [inhibitor, single point]. `Cc1ccc(C(=O)NCCc2cccs2)cc1` was tested, and the “activity, negative = inhibition” value was inactive: -0.432%. With `N#CC(c1ccc(Cl)cc1)c1nc2ccccc2nc1C(F)(F)F` (configuration not stated) the Potency was inconclusive [inhibitor, single point]. With `Cc1noc(C)c1C(=O)N1CCC[C@@]2(CCN(C(=O)Nc3ccccc3)C2)C1` the “activity, negative = inhibition” value was inactive: 0.766%. In the case of `CC(=O)c1ccccc1N(C(=O)c1ccco1)C(C(=O)NC1CCCC1)c1ccc(N2CCOCC2)cc1` (configuration not stated), the “activity, negative = inhibition” value is reported as inactive: -7.28%. With `CCOC(=O)C(C)Sc1nc(=O)n2cc(C)ccc2n1` (configuration not stated) the Potency was inconclusive [inhibitor, single point]. For `CCCCCCOC(=O)Nc1ccc(S(=O)(=O)Nc2cccc([N+](=O)[O-])c2)cc1`, the “activity, negative = inhibition” value was inactive: 1.65%. `COc1ccccc1-c1c(C)nn2c(N3CCN(Cc4ccccc4)CC3)cc(C)nc12` was tested, and the Potency was inconclusive [inhibitor, partial curve]. With `CC(C)C(=O)Nc1cccc(C(=O)Nc2ccccc2C(=O)O)c1` the “activity, negative = inhibition” value was inactive: -8.62%. In the case of `Cc1nc2cnc(OCc3ccccc3)nc2n(CCC#N)c1=O`, the Potency is reported as inconclusive [inhibitor, single point]. `CSc1ccc(CNc2cccc3ccccc23)cc1` was tested, and the Potency was inconclusive [inhibitor, partial curve]. With `COc1ccc(C(CC(=O)O)NC(=O)c2sc3ccccc3c2Cl)cc1` (configuration not stated) the Potency was inconclusive [inhibitor, single point]. `Cc1ccc(S(=O)(=O)N(C)C)cc1NC(=O)[C@H](Cc1ccccc1)N1C(=O)c2ccccc2C1=O` was tested, and the “activity, negative = inhibition” value was inactive: 6.7%. With `COC(=O)c1cccc(NC(=O)C23CC4CC(C2)CC(n2cncn2)(C4)C3)c1` the Potency was inconclusive [inhibitor, single point]. `O=C(N/C(=C/c1cccs1)C(=O)N1CCCCCC1)c1ccccc1` was tested, and the Potency was inconclusive [inhibitor, single point]. With `Cn1c(C(=O)NCCN2CCOCC2)cc2c(=O)n(C)c3ccccc3c21` the Potency was inconclusive [inhibitor, single point]. In the case of `CCCn1c(SCC(=O)N2CCCc3ccccc32)nc2c1c(=O)n(C)c(=O)n2C`, the Potency is reported as inconclusive [inhibitor, partial curve]. For `Cc1ccc(CNc2ccc3c(c2)ncn3C(C)(C)C)cc1`, the Potency was inconclusive [inhibitor, single point]. For `Cc1ccc2[nH]c(C(=O)O)c(-c3ccccc3)c2c1`, the Potency was inconclusive [inhibitor, single point]. In the case of `O=C(CCN1C(=O)c2ccccc2C1=O)N(CCO)Cc1ccccc1`, the Potency is reported as inconclusive [inhibitor, single point]. In the case of `COc1ccc2nc(N=NC3=C(O)CC(C)(C)CC3=O)sc2c1`, the Potency is reported as inconclusive [inhibitor, single point]. In the case of `O=c1oc(-c2ccccc2)nc2sc3c(c12)CCC3`, the Potency is reported as inconclusive [inhibitor, partial curve, poor fit]. For `S=C(NCc1ccc(Cl)cc1Cl)NC1CCCCC1`, the Potency was inconclusive [inhibitor, single point]. With `CCNC(=S)NNC(=O)c1cc(Br)cs1` the Potency was inconclusive [inhibitor, single point]. With `CCOc1ccc(CCNC(=O)C2CCN(c3ccc(N4CCOCC4)nn3)CC2)cc1OCC` the Potency was inconclusive [inhibitor, partial curve]. For `CC(NC(=O)/C(C#N)=C/c1cn(-c2ccccc2)nc1-c1ccc(F)cc1)c1ccccc1` (configuration not stated), the Potency was inconclusive [inhibitor, single point]. With `CC(=O)OCC1OC(C#CCCc2ccccc2)C=CC1OC(C)=O` (configuration not stated) the Potency was inconclusive [inhibitor, partial curve]. In the case of `CC(C)c1cc(=O)oc2c3c4c(cc12)CCCN4CCC3`, the Potency is reported as inconclusive [inhibitor, partial curve]. In the case of `CSc1ccccc1NC(=O)CN(C)CC(=O)NCc1ccccc1`, the Potency is reported as active: 0.199 µM. For `COc1nccnc1NS(=O)(=O)c1ccc(NC(=S)NC(=O)c2ccc(F)cc2)cc1`, the Potency was active: 14.1 µM. With `CSCC[C@H](NC(=O)c1ccc(Cl)c(S(=O)(=O)N2CCCC2)c1)c1nc2ccccc2[nH]1` the Potency was inconclusive [inhibitor, full curve, poor fit]. For `O=C(NCc1ccc2c(c1)OCO2)C1CCN(c2ccc(S(=O)(=O)N3CCCC3)cc2)CC1`, the Potency was inconclusive [inhibitor, single point].
